We go through 30 compounds from the supplement of paper PMC4604168 (melanoma cell lines).

This is one part of the list. Repeats are few or missing, and single values can be far off.
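Also: cell number obtained by counting DAPI-stained nuclei in high-throughput microscope images with image analysis software, screen run in 1,536-well plates.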

The test has as its system WM1745. The test can be described thus: cell count relative to DMSO control; melanoma cells; higher = more viable cells. The conditions noted are these: library dose: low library concentration; 72 h.
Take `O=C(O)[C@@H]1[O][Sb](=[O])([O][Sb]2(=[O])[O][C@H]([C@H](O)CO)[C@H](O)[C@H](C(=O)O)[O]2)[O][C@H]([C@H](O)CO)[C@@H]1O` (stereo not given in full) [stibogluconate] + CN(C)S(=O)(=O)c1ccc2c(c1)/C(=C/c1cc3c([nH]1)CCCC3)C(=O)N2 [SU6656] (first compound 2 µM, partner dose 0.4 µM): the cell count was found to be 92.9%.
`O=C(O)c1ccc2c(c1)nc(Nc1cccc(Cl)c1)c1ccncc12` + C[C@]1(c2nc3c(C(N)=O)cccc3[nH]2)CCCN1 [Veliparib] (first compound 0.4 µM, partner dose 1.4 µM) came in with a cell count of 96%.
Take `O=C(Nc1cc(C(F)(F)F)cc(C(F)(F)F)c1)c1cc(Cl)ccc1O` + NC(=O)c1ccc(N(C(N)=O)c2c(F)cccc2F)nc1-c1ccc(F)cc1F [VX702] (first compound 0.016 µM, partner dose 0.4 µM): the cell count is 98.3%.
`O=C(Nc1cc(C(F)(F)F)cc(C(F)(F)F)c1)c1cc(Cl)ccc1O` + Cn1cnc2c(F)c(Nc3ccc(Br)cc3Cl)c(C(=O)NOCCO)cc21 [selumetinib] (first compound 0.016 µM, partner dose 0.015 µM) yielded a cell count of 111%.
In the case of `O=C(O)c1ccc2c(c1)nc(Nc1cccc(Cl)c1)c1ccncc12` + O=C1NC(=O)/C(=C/c2ccc(-c3ccc(F)cc3O)o2)S1 [AS252424] (first compound 0.4 µM, partner dose 1 µM) it was 82.3%.
In turn, `O=C(Nc1cc(C(F)(F)F)cc(C(F)(F)F)c1)c1cc(Cl)ccc1O` + O=C(O)[C@@H]1[O][Sb](=[O])([O][Sb]2(=[O])[O][C@H]([C@H](O)CO)[C@H](O)[C@H](C(=O)O)[O]2)[O][C@H]([C@H](O)CO)[C@@H]1O [stibogluconate] (first compound 0.016 µM, partner dose 2 µM) had a cell count of 86.5%.
For `O=C(O)c1ccc2c(c1)nc(Nc1cccc(Cl)c1)c1ccncc12` + OCc1c[nH]c2ccccc12 [Indole-3-carbinol] (first compound 0.4 µM, partner dose 0.8 µM) the value was 106%.
For `O=C(Nc1cc(C(F)(F)F)cc(C(F)(F)F)c1)c1cc(Cl)ccc1O` + COc1cc2ncnc(Nc3ccc(Oc4ccccc4)cc3)c2cc1OC [SrcI1] (first compound 0.016 µM, partner dose 2 µM) the value was 86.9%; for `O=C(O)[C@@H]1[O][Sb](=[O])([O][Sb]2(=[O])[O][C@H]([C@H](O)CO)[C@H](O)[C@H](C(=O)O)[O]2)[O][C@H]([C@H](O)CO)[C@@H]1O` (stereo not given in full) [stibogluconate] + COc1cc(Nc2ncc(F)c(Nc3ccc4c(n3)NC(=O)C(C)(C)O4)n2)cc(OC)c1OC [Tamatinib] (first compound 2 µM, partner dose 0.4 µM), 56%; for `O=C(Nc1cc(C(F)(F)F)cc(C(F)(F)F)c1)c1cc(Cl)ccc1O` + CC1(C)CCC(c2ccc(Cl)cc2)=C(CN2CCN(c3ccc(C(=O)NS(=O)(=O)c4ccc(N[C@H](CCN5CCOCC5)CSc5ccccc5)c(S(=O)(=O)C(F)(F)F)c4)cc3)CC2)C1 [ABT263] (first compound 0.016 µM, partner dose 0.4 µM), 38%.
In turn, `O=C(Nc1cc(C(F)(F)F)cc(C(F)(F)F)c1)c1cc(Cl)ccc1O` + CC(C)CCN1c2nc(Nc3cc(F)c(O)c(F)c3)ncc2N(C)C(=O)C1C [BID1870] (first compound 0.016 µM, partner dose 0.2 µM) displayed a cell count of 115%.
In the case of `O=C(Nc1cc(C(F)(F)F)cc(C(F)(F)F)c1)c1cc(Cl)ccc1O` + O=C(Nc1cccc(Cl)c1)Nc1ncc(CCNc2ncnc3ccsc23)s1 [SNS314] (first compound 0.016 µM, partner dose 0.0008 µM), the cell count is 91.5%.
For `O=C(O)[C@@H]1[O][Sb](=[O])([O][Sb]2(=[O])[O][C@H]([C@H](O)CO)[C@H](O)[C@H](C(=O)O)[O]2)[O][C@H]([C@H](O)CO)[C@@H]1O` (stereo not given in full) [stibogluconate] + CCc1ccc(CCOc2ccc(CC3SC(=O)NC3=O)cc2)nc1 [pioglitazone] (first compound 2 µM, partner dose 2 µM) the value was 95.2%; for `O=C(O)[C@@H]1[O][Sb](=[O])([O][Sb]2(=[O])[O][C@H]([C@H](O)CO)[C@H](O)[C@H](C(=O)O)[O]2)[O][C@H]([C@H](O)CO)[C@@H]1O` (stereo not given in full) [stibogluconate] + O=C(O)C(=O)Nc1sc2c(c1C(=O)O)CCNC2 [TCS401] (first compound 2 µM, partner dose 1.66667 µM), 77.8%; for `O=C(Nc1cc(C(F)(F)F)cc(C(F)(F)F)c1)c1cc(Cl)ccc1O` + CS(=O)(=O)c1ccc(C(=O)Nc2ccc(Cl)c(-c3ccccn3)c2)c(Cl)c1 [vismodegib] (first compound 0.016 µM, partner dose 1 µM), 115%.
In the case of `O=C(Nc1cc(C(F)(F)F)cc(C(F)(F)F)c1)c1cc(Cl)ccc1O` + COc1ccc(Cl)c(Nc2nc3ccccc3nc2NS(=O)(=O)c2cccc(NC(=O)C(C)(C)N)c2)c1 [XL147] (first compound 0.016 µM, partner dose 0.8 µM) it was 97%; in that of `O=C(O)c1ccc2c(c1)nc(Nc1cccc(Cl)c1)c1ccncc12` + Cn1nnc2c(C(N)=O)ncn2c1=O [temozolomide] (first compound 0.4 µM, partner dose 2 µM), 97.5%; in that of `O=C(O)c1ccc2c(c1)nc(Nc1cccc(Cl)c1)c1ccncc12` + CC1(C)NC(=O)N(c2ccc([N+](=O)[O-])c(C(F)(F)F)c2)C1=O [nilutamide] (first compound 0.4 µM, partner dose 1 µM), 97.1%.
For `O=C(O)c1ccc2c(c1)nc(Nc1cccc(Cl)c1)c1ccncc12` + Oc1nc(-c2ccc(C(F)(F)F)cc2)nc2c1CSCC2 [XAV939] (first compound 0.4 µM, partner dose 2 µM) the value was 82.9%.
As for `O=C(O)[C@@H]1[O][Sb](=[O])([O][Sb]2(=[O])[O][C@H]([C@H](O)CO)[C@H](O)[C@H](C(=O)O)[O]2)[O][C@H]([C@H](O)CO)[C@@H]1O` (stereo not given in full) [stibogluconate] + C#Cc1cccc(Nc2ncnc3cc(OCCOC)c(OCCOC)cc23)c1 [erlotinib] (first compound 2 µM, partner dose 0.8 µM), the cell count is 92.4%.
For the compound `O=C(O)[C@@H]1[O][Sb](=[O])([O][Sb]2(=[O])[O][C@H]([C@H](O)CO)[C@H](O)[C@H](C(=O)O)[O]2)[O][C@H]([C@H](O)CO)[C@@H]1O` (stereo not given in full) [stibogluconate] + C[C@@H]1CCN(C(=O)CC#N)C[C@@H]1N(C)c1ncnc2[nH]ccc12 [CP690550] (first compound 2 µM, partner dose 1 µM), the cell count was 103%.
In the case of `O=C(O)[C@@H]1[O][Sb](=[O])([O][Sb]2(=[O])[O][C@H]([C@H](O)CO)[C@H](O)[C@H](C(=O)O)[O]2)[O][C@H]([C@H](O)CO)[C@@H]1O` (stereo not given in full) [stibogluconate] + OCc1c[nH]c2ccccc12 [Indole-3-carbinol] (first compound 2 µM, partner dose 0.8 µM) it was 96%; in that of `O=C(Nc1cc(C(F)(F)F)cc(C(F)(F)F)c1)c1cc(Cl)ccc1O` + Clc1ccc(Nc2nnc(Cc3ccncc3)c3ccccc23)cc1 [vatalanib] (first compound 0.016 µM, partner dose 2 µM), 92.5%; in that of `O=C(Nc1cc(C(F)(F)F)cc(C(F)(F)F)c1)c1cc(Cl)ccc1O` + CN(NC(=O)CC(=O)NN(C)C(=S)c1ccccc1)C(=S)c1ccccc1 [STA4783] (first compound 0.016 µM, partner dose 0.006 µM), 40%.
In turn, `O=C(Nc1cc(C(F)(F)F)cc(C(F)(F)F)c1)c1cc(Cl)ccc1O` + COCC[n+]1c2c(n(Cc3cnccn3)c1C)C(=O)c1ccccc1C2=O [YM155] (first compound 0.016 µM, partner dose 0.0004 µM) gave a cell count of 101%.
In the case of `O=C(Nc1cc(C(F)(F)F)cc(C(F)(F)F)c1)c1cc(Cl)ccc1O` + O=C(O)c1ccc2c(c1)nc(Nc1cccc(Cl)c1)c1ccncc12 [CX4945] (first compound 0.016 µM, partner dose 0.4 µM) it was 113%; in that of `O=C(Nc1cc(C(F)(F)F)cc(C(F)(F)F)c1)c1cc(Cl)ccc1O` + CCCCCCCCCCCCCCCCCCOP(=O)([O-])OC1CC[N+](C)(C)CC1 [Perifosine] (first compound 0.016 µM, partner dose 0.4 µM), 100%.
In the case of `O=C(O)c1ccc2c(c1)nc(Nc1cccc(Cl)c1)c1ccncc12` + NC(=O)Nc1cc(-c2cccc(F)c2)sc1C(=O)N[C@H]1CCCNC1 [AZD7762] (first compound 0.4 µM, partner dose 0.02 µM) it was 106%; in that of `O=C(Nc1cc(C(F)(F)F)cc(C(F)(F)F)c1)c1cc(Cl)ccc1O` + C#Cc1cccc(Nc2ncnc3cc(OCCOC)c(OCCOC)cc23)c1 [erlotinib] (first compound 0.016 µM, partner dose 0.8 µM), 91.8%; in that of `O=C(O)[C@@H]1[O][Sb](=[O])([O][Sb]2(=[O])[O][C@H]([C@H](O)CO)[C@H](O)[C@H](C(=O)O)[O]2)[O][C@H]([C@H](O)CO)[C@@H]1O` (stereo not given in full) [stibogluconate] + Nc1nc(F)nc2c1ncn2[C@@H]1O[C@H](CO)[C@@H](O)[C@@H]1O [fludarabine] (first compound 2 µM, partner dose 0.2 µM), 111%.
